From patent US20250019377A1 (JACOBIO PHARMACEUTICALS CO., LTD, priority 2021, published 2025)
pIC50: −log10 of the molar value.

Columns and labels:
[1] = test system: TCC-PAN2 cells (K-Ras G12R); assay: 3D cell growth inhibition assay, TCC-PAN2; type: cell-based; details: 144 h, 6 days, absolute IC50
[2] = test system: NCI-H460 cells (K-Ras Q61H); assay: 3D cell growth inhibition assay, NCI-H460; type: cell-based; details: Homo sapiens, 144 h, 6 days, absolute IC50
[3] = test system: p-ERK in NCI-H460 cells (K-Ras Q61H); assay: Phospho-ERK1/2(THR202/TYR204) HTRF assay, NCI-H460; type: cell-based; details: Homo sapiens, 2 hours incubation
[4] = test system: p-ERK in SW620 cells (K-Ras G12V); assay: Phospho-ERK1/2(THR202/TYR204) HTRF assay, SW620; type: cell-based; details: 2 hours incubation
[5] = test system: p-ERK in NCI-H747 cells (K-Ras G13D)
[6] = test system: AsPC-1 cells (K-Ras G12D); assay: 2D cell growth inhibition assay, AsPC-1; type: cell-based; details: AsPC-1, K-Ras G12D, 6 days, absolute IC50
MKN-1 cells (K-Ras WT) = assay: 3D cell growth inhibition assay, MKN-1; type: cell-based; details: Homo sapiens, 144 h, MKN-1, K-Ras WT, 6 days, absolute IC50
[7] = test system: p-ERK in NCI-H358 cells (K-Ras G12C); assay: Phospho-ERK1/2(THR202/TYR204) HTRF assay, NCI-H358; type: cell-based; details: Homo sapiens, 2 hours incubation
AGS cells (K-Ras G12D) = assay: 2D cell growth inhibition assay, AGS; type: cell-based; details: 6 days, absolute IC50
SW620 cells (K-Ras G12V) = assay: 2D cell growth inhibition assay, SW620; type: cell-based; details: 6 days, absolute IC50
[8] = test system: p-ERK in MKN-1 cells (K-Ras WT amplification); assay: Phospho-ERK1/2(THR202/TYR204) HTRF assay, MKN-1; type: cell-based; details: Homo sapiens; MKN-1, K-Ras WT, 2 hours incubation
[9] = test system: p-ERK in TCC-PAN2 cells (K-Ras G12R); assay: Phospho-ERK1/2(THR202/TYR204) HTRF assay, TCC-PAN2; type: cell-based; details: 2 hours incubation
[10] = test system: p-ERK in AGS cells (K-Ras G12D); assay: Phospho-ERK1/2(THR202/TYR204) HTRF assay, AGS; type: cell-based; details: 2 hours incubation

| Compound | IC50 [2] | IC50 [3] | IC50 [4] | pIC50 [5] | IC50 [6] | IC50 (MKN-1 cells (K-Ras WT)) | IC50 [7] | IC50 (AGS cells (K-Ras G12D)) | IC50 (SW620 cells (K-Ras G12V)) | IC50 [8] | IC50 [9] | IC50 [10] | IC50 ([4]; Homo sapiens, SW-620, 2 h) | IC50 ([6]; Homo sapiens, ASPC1, 144 h) | IC50 (AGS cells (K-Ras G12D); Homo sapiens, 144 h) | IC50 (SW620 cells (K-Ras G12V); Homo sapiens, SW-620, 144 h) | IC50 ([10]; Homo sapiens, 2 h) | IC50 [1] |
| --- | --- | --- | --- | --- | --- | --- | --- | --- | --- | --- | --- | --- | --- | --- | --- | --- | --- | --- |
| C#Cc1c(F)ccc2cc(O)cc(-c3ncc4c(N5CC6COC(C6)C5)nc(OC[C@@]56CCCN5C[C@H](F)C6)nc4c3F)c12 (single isomer, unassigned) [Compound 84B, 4-(4-((1S,5R)-6-oxa-3-azabicyclo[3.2.1]octan-3-yl)-8-fluoro-2-(((2R,7aS)-2-fluorotetra-hydro-1H-pyrrolizin-7a(5H)-yl)methoxy)pyrido[4,3-d]pyrimidin-7-yl)-5-ethynyl-6-fluoronaphthalen-2-ol or 4-(4-((1R,5S)-6-oxa-3-azabicyclo[3.2.1]octan-3-yl)-8-fluoro-2-(((2R,7aS)-2-fluorotetra-hydro-1H-pyrrolizin-7a(5H)-yl)methoxy)pyrido[4,3-d]pyrimidin-7-yl)-5-ethynyl-6-fluoronaphthalen-2-ol] | 461 nM | 21.8 nM | 5.74 nM | 8.33 | 136 nM | 28.8 nM | 3.78 nM | 10.2 nM | 10.9 nM | 2.15 nM | 133 nM | 2.76 nM | – | – | – | – | – | 999 nM |
| C#Cc1c(F)ccc2cc(O)cc(-c3ccc4c(N5CCCOCC5)nc(OC[C@@]56CCCN5C[C@H](F)C6)nc4c3F)c12 [Compound 147, 5-ethynyl-6-fluoro-4-(8-fluoro-2-(((2R,7aS)-2-fluorotetrahydro-1H-pyrrolizin-7a(5H)-yl)methoxy)-4-(1,4-oxazepan-4-yl)quinazolin-7-yl)naphthalen-2-ol] | – | – | – | – | – | – | – | – | – | – | – | – | 11.2 nM | 142 nM | 23.7 nM | 17.5 nM | 4.01 nM | – |
| C#Cc1c(F)ccc2cc(O)cc(-c3ncc4c(N5CCCOC(C)C5)nc(OC[C@@]56CCCN5C[C@H](F)C6)nc4c3F)c12 (stereo partly drawn) [Compound 149, 5-ethynyl-6-fluoro-4-(8-fluoro-2-(((2R,7aS)-2-fluorotetrahydro-1H-pyrrolizin-7a(5H)-yl)methoxy)-4-(2-methyl-1,4-oxazepan-4-yl)pyrido[4,3-d]pyrimidin-7-yl) naphthalen-2-ol] | – | – | – | – | – | – | – | – | – | – | – | – | 14.9 nM | 187 nM | 22.9 nM | 26.2 nM | 6.85 nM | – |
| C#Cc1c(F)ccc2cc(O)cc(-c3ncc4c(N5CCOC[C@@H](CC#N)C5)nc(OC[C@@]56CCCN5C[C@H](F)C6)nc4c3F)c12 (single isomer, unassigned) [Compound 14A] | – | – | – | – | – | – | – | – | – | – | – | – | – | 6190 nM | 610 nM | > 1000 nM | – | – |

Now from value to compound, other results behind:

| IC50 [2] | IC50 [3] | IC50 [4] | pIC50 [5] | IC50 [6] | IC50 (MKN-1 cells (K-Ras WT)) | IC50 [7] | IC50 (AGS cells (K-Ras G12D)) | IC50 (SW620 cells (K-Ras G12V)) | IC50 [8] | IC50 [9] | IC50 [10] | IC50 ([4]; Homo sapiens, SW-620, 2 h) | IC50 ([6]; Homo sapiens, ASPC1, 144 h) | IC50 (AGS cells (K-Ras G12D); Homo sapiens, 144 h) | IC50 (SW620 cells (K-Ras G12V); Homo sapiens, SW-620, 144 h) | IC50 ([10]; Homo sapiens, 2 h) | Compound | IC50 [1] |
| --- | --- | --- | --- | --- | --- | --- | --- | --- | --- | --- | --- | --- | --- | --- | --- | --- | --- | --- |
| – | – | – | – | – | – | – | – | – | – | – | – | – | 130 nM | 24.5 nM | 41.3 nM | – | C#Cc1c(F)ccc2cc(O)cc(-c3ncc4c(N5CCCOCC5)nc(OCC5(CN6CCOCC6)CC5)nc4c3F)c12 [Compound 64, 5-ethynyl-6-fluoro-4-(8-fluoro-2-((1-(morpholinomethyl)cyclopropyl)methoxy)-4-(1,4-oxazepan-4-yl)pyrido[4,3-d]pyrimidin-7-yl)naphthalen-2-ol trifluoroacetic acid] | – |
| 83 nM | – | – | – | – | 9.09 nM | – | – | – | – | – | – | – | 37.7 nM | 2.17 nM | 3.11 nM | – | C#Cc1c(F)ccc2cc(O)cc(-c3ncc4c(N5CCOC[C@H](F)C5)nc(OC[C@@]56CCCN5C[C@H](F)C6)nc4c3F)c12 (single isomer, unassigned) [Compound 12B] | 184 nM |
| 139 nM | 17.7 nM | – | – | – | 21.1 nM | 2.04 nM | – | – | 3.57 nM | 104 nM | – | 14.3 nM | 67.2 nM | 5.4 nM | 8.64 nM | 2.63 nM | C#Cc1c(F)ccc2cc(O)cc(-c3ncc4c(N5CCCOCC5)nc(OCC56CCCN5CC(SC)C6)nc4c3F)c12 (centres unmarked) [Compound 100, 5-ethynyl-6-fluoro-4-(8-fluoro-2-((2-(methyl-thio)tetrahydro-1H-pyrrolizin-7a(5H)-yl)methoxy)-4-(1,4-oxazepan-4-yl)pyrido [4,3-d]pyrimidin-7-yl)naphthalen-2-ol] | 720 nM |
| – | – | – | 7.89 | – | – | – | – | – | – | – | – | 13 nM | 72.5 nM | 9.03 nM | 13.9 nM | 4.57 nM | C#Cc1c(F)ccc2cc(O)cc(-c3c(F)cc4c(N5CCCOCC5)nc(OC[C@@]56CCCN5C[C@H](F)C6)nc4c3F)c12 [Compound 148, 4-(6,8-difluoro-2-(((2R,7aS)-2-fluorotetra-hydro-1H-pyrrolizin-7a(5H)-yl)methoxy)-4-(1,4-oxazepan-4-yl)quinazolin-7-yl)-5-ethynyl-6-fluoronaphthalen-2-ol] | – |
| 24.6 nM | – | – | – | – | 3.11 nM | – | – | – | – | – | – | – | 33.6 nM | 4.19 nM | 2.05 nM | – | C#Cc1c(F)ccc2cc(O)cc(-c3ncc4c(N5CCOCC6CC65)nc(OC[C@@]56CCCN5C[C@H](F)C6)nc4c3F)c12 (stereo partly drawn) [Compound 33, 4-(4-(5-oxa-2-azabicyclo[5.1.0]octan-2-yl)-8-fluoro-2-(((2R,7aS)-2-fluorotetrahydro-1H-pyrrolizin-7a(5H)-yl)methoxy)pyrido[4,3-d]pyrimidin-7-yl)-5-ethynyl-6-fluoronaphthalen-2-ol] | 117 nM |
